# Assay results as given in the supplement of paper PMC8728848.
# This is one part of the list.
# B1: P-Selectin (Mus musculus), Q01102 (protein)
# chain: MAGCPKGSWTPRLRSVILGGAQLIWFSALISELVNQKEVAAWTYNYSTKAYSWNNSRVFCRRHFTDLVAIQNKNEIAHLNDVIPFFNSYYWIGIRKINNKWTWVGTNKTLTEEAENWADNEPNNKKNNQDCVEIYIKSNSAPGKWNDEPCFKRKRALCYTASCQDMSCSNQGECIETIGSYTCSCYPGFYGPECEYVKECGKVNIPQHVLMNCSHPLGEFSFNSQCTFSCAEGYELDGPGELQCLASGIWTNNPPKCDAVQCQSLEAPPHGTMACMHPIAAFAYDSSCKFECQPGYRARGSNTLHCTGSGQWSEPLPTCEAIACEPPEIPIHGSMDCVPSTGTFGYNSSCTFLCAEGFVLKGNDAIQCADSGQWTAPAPFCEALQCPEFPVPSKAQVNCSDPFGTLTYQSVCSFSCDEGSLLVGASVIRCLATGHWNGAPPECQAVSCAPMLSPENGSMTCVQPLGNSTYKSTCQFMCDEGFYLSGPERLDCSPSGHWTGTPPTCEAIKCPGIFAPEQGNLDCSHVHGEFGVGSICHFSCNEDFELLGSENVECTVSGRWSAPPPTCKGITSLPAPAVRCPALTTPGQGTMSCQHHLGSFGPNTTCYFGCKTGFTLRGANSLRCRASGQWTAVTPMCRAVKCSELHMDTAVAMNCSNPWGNFSYGSTCTFQCPEGQSLNGSVRATCREDGHWSDAMPTCQAGTLTIQEALTYLGGAVASTTGLAVGGTLLALLRKRLRKKDDGKCPLNPHSHLGTYGVFTNAAYDPTP
# How the values were obtained:
# Assay in all cases: glycan array binding signal (z-score within array); higher = stronger binding
# Conditions in all cases: glycan notation: IUPAC condensed, linker removed
# [1] = target: Fuc(a1-3)[Gal3S(b1-4)]GlcNAc6S
# In short: (§1)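 Columns mapping to the same glycan were averaged after glycan names were converted to IUPAC-condensed notation. The data come from 3228 arrays in the Consortium for Functional Glycomics database, limited to those with an available protein sequence. Binding is reported as a within-array Z-score averaged across arrays of one protein sequence and across linkers.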
# [2] = target: Fuc(a1-3)[GalNAc(b1-4)]GlcNAc
# In short: as §1
# [3] = target: Fuc(a1-4)GlcNAc
# In short: as §1
# [4] = target: Fuc(b1-3)GlcNAc
# In short: as §1
# [5] = target: Gal(a1-2)Gal
# In short: as §1
# [6] = target: Gal(a1-3)Gal
# In short: as §1
# [7] = target: Gal(a1-3)Gal(b1-3)GlcNAc
# In short: as §1
# [8] = target: Gal(a1-3)Gal(b1-4)Glc
# In short: as §1
# [9] = target: Gal(a1-3)Gal(b1-4)GlcNAc
# In short: as §1
# [10] = target: Gal(a1-3)Gal(b1-4)[Fuc(a1-3)]GlcNAc
# In short: as §1
# [11] = target: Gal(a1-3)GalNAc
# In short: as §1
# [12] = target: Gal(a1-3)[Gal(a1-4)]Gal(b1-4)GlcNAc
# In short: as §1
# [13] = target: Gal(a1-4)Gal(b1-4)Glc
# In short: as §1
# [14] = target: Gal(a1-4)Gal(b1-4)GlcNAc
# In short: as §1
# [15] = target: Gal(a1-4)GlcNAc
# In short: as §1
# [16] = target: Gal(a1-6)Glc
# In short: as §1
# [17] = target: Gal(b1-2)Gal
# In short: as §1
# [18] = target: Gal(b1-3)Gal
# In short: as §1
# [19] = target: Gal(b1-3)Gal(b1-4)GlcNAc
# In short: as §1
# [20] = target: Gal(b1-3)GalNAc
# In short: as §1
# [21] = target: Gal(b1-3)GalNAc(b1-3)Gal(a1-4)Gal(b1-4)Glc
# In short: as §1
# [22] = target: Gal(b1-3)GalNAc(b1-4)Gal(b1-4)Glc
# In short: as §1
# [23] = target: Gal(b1-3)GalNAc(b1-4)[Neu5Ac(a2-3)]Gal(b1-4)Glc
# In short: as §1
# [24] = target: Gal(b1-3)GlcNAc
# In short: as §1
# [25] = target: Gal(b1-3)GlcNAc(b1-2)Man(a1-3)[Gal(b1-3)GlcNAc(b1-2)Man(a1-6)]Man(b1-4)GlcNAc(b1-4)GlcNAc
# In short: as §1
# [26] = target: Gal(b1-3)GlcNAc(b1-3)Gal(b1-3)GlcNAc
# In short: as §1
# [27] = target: Gal(b1-3)GlcNAc(b1-3)Gal(b1-4)Glc
# In short: as §1
# [28] = target: Gal(b1-3)GlcNAc(b1-3)Gal(b1-4)GlcNAc
# In short: as §1
# [29] = target: Gal(b1-3)[Fuc(a1-4)]GlcNAc
# In short: as §1
# [30] = target: Gal(b1-3)[Fuc(a1-4)]GlcNAc(b1-3)Gal(b1-3)[Fuc(a1-4)]GlcNAc
# In short: as §1
# [31] = target: Gal(b1-3)[Fuc(a1-4)]GlcNAc(b1-3)Gal(b1-4)GlcNAc
# In short: as §1
# [32] = target: Gal(b1-3)[Fuc(a1-4)]GlcNAc(b1-3)Gal(b1-4)[Fuc(a1-3)]GlcNAc
# In short: as §1
# [33] = target: Gal(b1-3)[GlcNAc(b1-6)]GalNAc
# In short: as §1
# [34] = target: Gal(b1-3)[Neu5Ac(a2-6)]GalNAc
# In short: as §1
# [35] = target: Gal(b1-3)[Neu5Ac(a2-6)]GlcNAc(b1-6)Gal(b1-4)Glc
# In short: as §1
# [36] = target: Gal(b1-3)[Neu5Ac(b2-6)]GalNAc
# In short: as §1
# [37] = target: Gal(b1-4)GalNAc(a1-3)[Fuc(a1-2)]Gal(b1-4)GlcNAc
# In short: as §1
# [38] = target: Gal(b1-4)GalNAc(b1-3)[Fuc(a1-2)]Gal(b1-4)GlcNAc
# In short: as §1
# [39] = target: Gal(b1-4)Glc
# In short: as §1
# [40] = target: Gal(b1-4)Glc6S
# In short: as §1
# [41] = target: Gal(b1-4)GlcNAc
# In short: as §1
# [42] = target: Gal(b1-4)GlcNAc(a1-6)Gal(b1-4)GlcNAc
# In short: as §1
# [43] = target: Gal(b1-4)GlcNAc(b1-2)Man(a1-3)[Gal(b1-4)GlcNAc(b1-2)Man(a1-6)]Man(b1-4)GlcNAc(b1-4)GlcNAc
# In short: as §1
# [44] = target: Gal(b1-4)GlcNAc(b1-3)Gal(b1-3)GlcNAc
# In short: as §1
# [45] = target: Gal(b1-4)GlcNAc(b1-3)Gal(b1-4)Glc
# In short: as §1
binder,measurement,setting,value
B1,glycan array binding signal (z-score),[1],3.95
same,glycan array binding signal (z-score),[2],0.12
same,glycan array binding signal (z-score),[3],-0.553
same,glycan array binding signal (z-score),[4],-0.63
same,glycan array binding signal (z-score),[5],-0.719
same,glycan array binding signal (z-score),[6],-0.535
same,glycan array binding signal (z-score),[7],-0.649
same,glycan array binding signal (z-score),[8],-0.705
same,glycan array binding signal (z-score),[9],-0.157
same,glycan array binding signal (z-score),[10],0.313
same,glycan array binding signal (z-score),[11],-0.445
same,glycan array binding signal (z-score),[12],-0.678
same,glycan array binding signal (z-score),[13],-0.228
same,glycan array binding signal (z-score),[14],-0.235
same,glycan array binding signal (z-score),[15],-0.463
same,glycan array binding signal (z-score),[16],0.034
same,glycan array binding signal (z-score),[17],-0.572
same,glycan array binding signal (z-score),[18],-0.618
same,glycan array binding signal (z-score),[19],-0.405
same,glycan array binding signal (z-score),[20],-0.399
same,glycan array binding signal (z-score),[21],-0.475
same,glycan array binding signal (z-score),[22],-0.55
same,glycan array binding signal (z-score),[23],-0.302
same,glycan array binding signal (z-score),[24],-0.591
same,glycan array binding signal (z-score),[25],-0.407
same,glycan array binding signal (z-score),[26],-0.386
same,glycan array binding signal (z-score),[27],-0.261
same,glycan array binding signal (z-score),[28],-0.593
same,glycan array binding signal (z-score),[29],0.104
same,glycan array binding signal (z-score),[30],0.199
same,glycan array binding signal (z-score),[31],0.517
same,glycan array binding signal (z-score),[32],0.285
same,glycan array binding signal (z-score),[33],-0.4
same,glycan array binding signal (z-score),[34],-0.302
same,glycan array binding signal (z-score),[35],-0.325
same,glycan array binding signal (z-score),[36],-0.378
same,glycan array binding signal (z-score),[37],-0.356
same,glycan array binding signal (z-score),[38],-0.454
same,glycan array binding signal (z-score),[39],-0.42
same,glycan array binding signal (z-score),[40],0.101
same,glycan array binding signal (z-score),[41],-0.661
same,glycan array binding signal (z-score),[42],-0.328
same,glycan array binding signal (z-score),[43],-0.453
same,glycan array binding signal (z-score),[44],-0.277
same,glycan array binding signal (z-score),[45],-0.318
